Results on eight compounds are retold here after PubChem BioAssay (NCATS).

The other results are listed elsewhere or left out. The main result of the screen is listed elsewhere. These columns were measured beside it and carry no call. For some of these results: Compounds called inactive in the main read-out are mostly missing here. Potencies come from curve fits of mixed quality, noted in brackets.

The target of experiment [1] is Catechol O-methyltransferase (Homo sapiens) (UniProt P21964). Nature of the experiment: Confirmatory Screen for Target Class Profiling of Small Molecule Inhibitors of Methyltransferases (AID 1745852).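 Further: inhibitor potency for blocking SAH production.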 Conditions: MTase-Glo luminescence, SAH detection, recombinant enzyme; measured here: COMT inhibition potency.
UniProt P21964, sequence (P21964 whole entry, looked up): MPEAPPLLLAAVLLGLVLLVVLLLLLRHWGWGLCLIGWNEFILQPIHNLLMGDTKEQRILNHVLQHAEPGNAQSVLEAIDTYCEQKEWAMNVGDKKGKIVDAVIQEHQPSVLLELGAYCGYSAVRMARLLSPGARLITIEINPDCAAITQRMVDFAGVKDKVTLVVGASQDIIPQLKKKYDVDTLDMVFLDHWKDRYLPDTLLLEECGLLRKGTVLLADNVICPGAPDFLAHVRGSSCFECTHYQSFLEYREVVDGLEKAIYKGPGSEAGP
Experiment [2] has as its target Histamine N-methyltransferase (Homo sapiens) (UniProt P50135). The description is as above. The conditions noted are these: MTase-Glo luminescence, SAH detection, recombinant enzyme; measured here: HNMT inhibition potency.
UniProt P50135, sequence (P50135 whole entry, looked up): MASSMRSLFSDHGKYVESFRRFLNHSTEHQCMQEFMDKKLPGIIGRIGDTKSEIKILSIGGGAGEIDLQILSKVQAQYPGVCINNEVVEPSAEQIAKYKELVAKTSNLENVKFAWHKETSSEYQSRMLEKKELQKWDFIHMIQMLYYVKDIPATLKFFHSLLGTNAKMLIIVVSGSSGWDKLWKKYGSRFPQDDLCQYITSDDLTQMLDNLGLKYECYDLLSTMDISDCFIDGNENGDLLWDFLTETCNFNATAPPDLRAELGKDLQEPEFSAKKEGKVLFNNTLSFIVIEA
The target of experiment [3] is Nicotinamide N-methyltransferase (Homo sapiens) (UniProt P40261). Described as above. Conditions: MTase-Glo luminescence, SAH detection, recombinant enzyme; measured here: NNMT inhibition potency.
UniProt P40261, sequence (P40261 whole entry, looked up): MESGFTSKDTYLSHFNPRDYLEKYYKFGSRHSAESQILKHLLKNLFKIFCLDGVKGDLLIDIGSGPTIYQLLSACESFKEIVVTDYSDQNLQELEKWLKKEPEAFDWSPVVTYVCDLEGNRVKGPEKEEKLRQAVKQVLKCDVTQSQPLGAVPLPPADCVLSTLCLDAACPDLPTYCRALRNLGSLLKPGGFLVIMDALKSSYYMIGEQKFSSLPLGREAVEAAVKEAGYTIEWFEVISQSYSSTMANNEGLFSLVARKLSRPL
Experiment [4] deals with Phenylethanolamine N-methyltransferase (Homo sapiens) (UniProt P11086). Described as above. Conditions: MTase-Glo luminescence, SAH detection, recombinant enzyme; measured here: PNMT inhibition potency.
UniProt P11086, sequence (P11086 whole entry, looked up): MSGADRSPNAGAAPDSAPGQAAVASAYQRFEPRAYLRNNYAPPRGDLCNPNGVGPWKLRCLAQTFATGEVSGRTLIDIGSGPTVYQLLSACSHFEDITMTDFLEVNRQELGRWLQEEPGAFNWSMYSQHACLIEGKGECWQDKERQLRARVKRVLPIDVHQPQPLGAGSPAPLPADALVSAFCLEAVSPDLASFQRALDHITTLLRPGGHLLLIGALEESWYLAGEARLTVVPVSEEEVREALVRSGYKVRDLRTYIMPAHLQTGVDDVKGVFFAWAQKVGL
Experiment [5] in a line: qHTS drug screen for cell cycle checkpoint inhibitors in PARPi-resistant BRCA-mutant ovarian cancer cell lines. (AID 1963452). The conditions noted are these: PEO1/OlaR viability, CellTiter-Glo luminescence, 96 h. A digest of the protocol:
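PEO1, PEO4 and PEO1/OlaR ovarian cancer cells, 600 per well, exposed 96 h at 37C to a dilution series. Viability read by CellTiter-Glo luminescence, normalized to DMSO and empty wells; activity summarized as Z-AUC.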
For orientation: In qHTS, concentration-response curves come from the screen itself.

Experiment [6] can be described thus: qHTS for identification of novel therapeutic agents for treatment of microphthalmiaassociated transcription factor (MiT) renal cell carcinoma (RCC) (AID 1963991). The conditions noted are these: CellTiter-Glo, 48 h; for z-score: stronger effect = lower value. A digest of the protocol: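 Three TFE3-fusion RCC lines (UOK109, UOK124, UOK145), 500 cells/well in complete medium, were treated with MIPE 4.0 compounds for 48 hours at 37 C. Viability was by CellTiter-Glo luminescence, normalized to DMSO (100%) and empty wells (0%); curves fitted over 11 concentrations.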

Setting [7] is: measured here: PEO1 parental viability.
[8] abbreviates: TFE3-RCC UOK109 viability, measured here: UOK109 Z-AUC.
The mark [9] stands for this setting: TFE3-RCC viability, measured here: UOK124 Z-AUC.
Where [10] appears, read: TFE3-RCC viability, measured here: UOK124 cell viability.
Setting [11] is: TFE3-RCC viability, measured here: UOK145 Z-AUC.
[12] abbreviates: TFE3-RCC viability, measured here: UOK145 cell viability.
Tags describe the fitted curve by direction and shape.

Take `Nc1cccc(-c2cc3c(Oc4cccc(O)c4)ncnc3[nH]2)c1`: the IC50 was 24.1 µM [falling, partial curve] in experiment [1]; 34.1 µM [falling, single point] in experiment [2]; 24.1 µM [falling, partial curve] in experiment [3]; 21.5 µM [falling, partial curve] in experiment [4]. The half-maximal activity concentration (AC50) is 27.5 µM [falling, single point] in experiment [5] (setting [7]); 15.5 µM [falling, single point] in experiment [5] (measured here: PEO4 viability); 3.72 µM [falling, partial curve] in experiment [6] (setting [10]); 18.7 µM [falling, partial curve] in experiment [6] (setting [12]). Further, the z-score was -1.34 in experiment [6] (setting [8]), -0.522 in experiment [6] (setting [9]) and -0.928 in experiment [6] (setting [11]).

In the case of `O=C1COc2ccc(-c3cccc(O)c3)nc2CN1Cc1ccc(C(F)(F)F)cc1`, the IC50 in experiment [1] was 49.5 µM [falling, single point]; in experiment [2], 44.1 µM [falling, single point]; in experiment [4], 35 µM [falling, partial curve].

For `CCN1CCC(n2cc(CNc3cc(Cl)c4ncc(C#N)c(Nc5ccc(F)c(Cl)c5)c4c3)nn2)CC1`, the IC50 in experiment [1] was 8.57 µM [falling, full curve]; in experiment [2] it was 1.08 µM [falling, full curve]; in experiment [3] it was 10.8 µM [falling, full curve]; in experiment [4], 9.61 µM [falling, full curve]. Besides, the half-maximal activity concentration (AC50) was 2.75 µM [falling, full curve, poor fit] in experiment [5] (setting [7]); 1.74 µM [falling, full curve, poor fit] in experiment [5] (measured here: PEO4 viability); 23.5 µM [falling, partial curve] in experiment [6] (setting [10]); 23.5 µM [falling, partial curve] in experiment [6] (setting [12]). The z-score is -0.438 in experiment [6] (setting [8]), 0.254 in experiment [6] (setting [9]) and 0.479 in experiment [6] (setting [11]).

Turning to `Cc1ccc(C(N)=O)cc1Nc1nccc(-c2cn(C(C)C)c3cnccc23)n1`, the half-maximal inhibitory concentration (IC50) in experiment [1] is 24.1 µM [falling, partial curve]; in experiment [2], 24.1 µM [falling, partial curve]; in experiment [3] it was 24.1 µM [falling, partial curve]; in experiment [4], 24.1 µM [falling, partial curve]. For the same compound, the AC50 was 4.9 µM [falling, full curve] in experiment [5] (setting [7]); 4.9 µM [falling, partial curve] in experiment [5] (measured here: PEO4 viability); 9.35 µM [falling, partial curve] in experiment [6] (setting [10]); 9.35 µM [falling, full curve] in experiment [6] (setting [12]). For the same compound, the z-score was -0.317 in experiment [6] (setting [8]), 0.468 in experiment [6] (setting [9]) and 0.228 in experiment [6] (setting [11]).

In the case of `C=CC(=O)Nc1ccc2ncnc(Nc3cccc(Br)c3)c2c1`, the concentration for half-maximal inhibition (IC50) in experiment [1] was 17.1 µM [falling, partial curve]; in experiment [2], 21.5 µM [falling, partial curve]; in experiment [3] it was 24.1 µM [falling, partial curve]; in experiment [4] it was 15.2 µM [falling, partial curve]. For the same compound, the concentration at half-maximal activity (AC50) in experiment [5] (setting [7]) is 6.16 µM [falling, partial curve]; in experiment [5] (measured here: PEO4 viability), 3.89 µM [falling, partial curve].

As for `Cc1ccc(CNC(=O)c2ccc3c(=O)[nH]c4c(C(=O)NC(C)C)sc(=S)n4c3c2)cc1`, the 50% inhibitory concentration (IC50) is 24.1 µM [falling, single point] in experiment [1] and 21.5 µM [falling, partial curve] in experiment [3].

As to `CCN1CCN(Cc2ccc(Nc3ncc(F)c(-c4cc(F)c5nc(C)n(C(C)C)c5c4)n3)nc2)CC1`, the IC50 in experiment [1] is 13.6 µM [falling, partial curve]; in experiment [2], 12.1 µM [falling, partial curve]; in experiment [3], 17.1 µM [falling, partial curve]; in experiment [4] it was 15.2 µM [falling, partial curve]. The AC50 is 11 µM [falling, partial curve] in experiment [5] (setting [7]) and 15.5 µM [falling, partial curve] in experiment [5] (measured here: PEO4 viability).

As for `Cc1cccc(Nc2nc(-c3ccncc3)cs2)c1`, the concentration for half-maximal inhibition (IC50) is 9.61 µM [falling, partial curve] in experiment [1]; 6.07 µM [falling, full curve] in experiment [2]; 17.1 µM [falling, partial curve] in experiment [3]; 10.8 µM [falling, partial curve] in experiment [4]. Also, the concentration at half-maximal activity (AC50) in experiment [5] (setting [7]) is 19.5 µM [falling, partial curve]; in experiment [5] (measured here: PEO4 viability) it was 17.4 µM [falling, partial curve]; in experiment [6] (setting [10]) it was 13.2 µM [falling, partial curve]; in experiment [6] (setting [12]) it was 13.2 µM [falling, partial curve]. Besides, the z-score in experiment [6] (setting [8]) was -0.399; in experiment [6] (setting [9]) it was -0.937; in experiment [6] (setting [11]), -0.414.

One may read the IC50 as the point on the concentration scale where inhibition reaches its midpoint. A word on the AC50: it is the midpoint of the concentration-response curve, whichever way the signal moves.
